# Assay results reported in the supplement of paper PMC3334620.
# The full ranking holds about 33,000 sequences; the median of “E-score (-0.5 to 0.5)” is about -0.032, and the highest 2% start at about 0.36. The list shows a part of the results.
# Molecular target: T1, Sko1 (UniProt Q02100)
# T1 sequence: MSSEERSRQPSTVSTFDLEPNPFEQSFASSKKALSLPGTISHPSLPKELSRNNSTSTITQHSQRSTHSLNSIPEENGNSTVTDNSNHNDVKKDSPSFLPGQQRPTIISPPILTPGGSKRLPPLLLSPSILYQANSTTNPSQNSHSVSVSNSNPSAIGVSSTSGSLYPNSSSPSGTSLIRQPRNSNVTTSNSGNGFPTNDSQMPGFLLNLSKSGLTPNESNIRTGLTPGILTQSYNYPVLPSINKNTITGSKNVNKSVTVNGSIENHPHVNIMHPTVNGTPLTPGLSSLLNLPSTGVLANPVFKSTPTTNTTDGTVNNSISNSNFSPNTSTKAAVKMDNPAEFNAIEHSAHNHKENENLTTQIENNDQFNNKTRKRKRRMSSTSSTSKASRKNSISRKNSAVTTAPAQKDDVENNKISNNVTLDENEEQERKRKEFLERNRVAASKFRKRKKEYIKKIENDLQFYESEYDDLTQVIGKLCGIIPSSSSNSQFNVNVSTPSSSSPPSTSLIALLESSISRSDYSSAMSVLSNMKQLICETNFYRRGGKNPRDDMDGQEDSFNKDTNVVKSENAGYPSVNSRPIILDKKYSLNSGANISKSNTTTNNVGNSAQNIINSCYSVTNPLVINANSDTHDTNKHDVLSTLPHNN
# Assay: PBM E-score (8-mer binding enrichment) (E-score (-0.5 to 0.5)); higher = stronger / more preferred TF binding; most listed sequences are background and not binding sites
# Conditions: protein concentration: 200 nM; construct: GST-full length
# Method in brief: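 E-scores (a modified Wilcoxon-Mann-Whitney statistic) were assigned by the Universal PBM Analysis Suite to every ungapped eight-base word pooled with its reverse complement. The input came from universal all-10-mer Agilent arrays made double-stranded by primer extension and probed with GST-tagged yeast transcription factors at about 100-200 nM. Fluorescent anti-GST detected bound protein, and masliner normalised the scans.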
row,Sequence,PBM E-score
1,ATGTTAGA,0.085
2,CTATTATA,0.0584
3,AACAGGAA,0.0594
4,CATCTGTC,-0.164
5,CCCAAATC,-0.147
6,CCAGTCCA,-0.429
7,ATCACTCG,0.0477
8,CCAGGATC,-0.228
9,GTTTTAGA,0.156
10,CCTAAAGG,-0.262
11,AGCTGCAG,-0.0895
12,AGCAGGTC,-0.164
13,AGACTGCA,-0.234
14,AGTAAACG,0.0954
15,AGATGCCT,-0.0581
16,CAAATCAC,0.0593
17,CGATGAAA,0.134
18,CATATGGG,-0.0901
19,CCTCGGAC,-0.313
20,ACTCGACG,0.177
21,GCCTCCGC,-0.25
22,GTCGCACA,-0.0203
23,GCGCCAAA,-0.0722
24,CCGATTAA,-0.0807
25,GCCGTCCC,-0.0843

row,Sequence,PBM E-score
1,AATACTTC,0.109
2,CGTAACCC,0.289
3,CATTGTCC,-0.124
4,ACATCGTC,0.204
5,CGGTGCAG,-0.165
6,ACCTCTAC,0.107
7,GGACCCCA,-0.18
8,CAACTTTC,0.106
9,GAGAGGTA,-0.172
10,GTTAACAA,0.0704
11,CTCTTTGC,-0.136
12,AACAGTTC,0.0516
13,TATCTGAA,0.00502
14,CTCGACCC,-0.201
15,AAGACGGA,-0.0952
16,GAAGAGAA,-0.0172
17,AATTTCGA,0.155
18,ATAGGAGC,-0.102
19,CTAGACAC,-0.0241
20,GTAGATTA,0.269
21,AAAAACCG,-0.0151
22,TGCAGGAA,0.0526
23,CCTAATTC,0.0452
24,ATAGGCTA,-0.0866
25,CACCTCCA,-0.0533

row,Sequence,PBM E-score
1,CACGTGCG,0.353
2,TAACAACA,0.125
3,ATTAGCCG,-0.0929
4,CTTGTTGC,0.128
5,ACCATAGC,-0.261
6,ACACGTTA,0.318
7,AAAAATTC,0.0675
8,AAAAGCAC,-0.151
9,CATGGGTA,-0.0852
10,ATAATCAG,0.148
11,CGTATGAC,0.445
12,GTCTGGTA,0.0221
13,GAGGACCC,-0.302
14,GATGAAGC,-0.198
15,GGCTCGAA,-0.071
16,TCTACCCA,-0.0345
17,AAGCCTGC,-0.117
18,CACGTAAG,0.448
19,CCGCTGTC,-0.153
20,AAATTTGC,0.0217
21,AAATACTA,0.199
22,ATTGACAA,0.0901
23,TATACCGA,0.00019
24,CCAGCAAA,-0.0829
25,CAATAGGG,-0.189

row,Sequence,PBM E-score
1,ACCTAGCG,-0.0355
2,AGGGGCGG,-0.284
3,ATAGCTGG,-0.121
4,AAACCCAC,0.0716
5,ACATTGTC,0.178
6,CGAGTCCC,-0.239
7,GTTTAAGA,-0.0752
8,ACGCAGAA,0.241
9,ACAATTGA,0.129
10,ACCGCAGC,-0.279
11,CTCTCAGC,-0.107
12,AGTTTGAA,0.148
13,CCCGCTCG,-0.16
14,CCACGGGC,-0.37
15,AGATTAAC,0.132
16,ATACCAGG,-0.146
17,ATAGTACG,0.264
18,ATTGGACA,-0.0669
19,CAATGATC,0.0721
20,CATCGATG,0.0694
21,AAGCCAAG,-0.265
22,GGGCTACC,-0.198
23,CTGCGACA,0.0631
24,CACACGGA,-0.167
25,AGCATGCA,-0.0156

row,Sequence,PBM E-score
1,AGACACCT,-0.236
2,CACTAATA,0.169
3,CTCAAGAG,-0.332
4,AGCTCTAA,-0.0484
5,ATATTGTA,0.166
6,CCTTACCG,-0.0732
7,ATGTAGAC,0.139
8,GTATTGTA,0.255
9,TAGGATGA,0.136
10,ATAGTTAG,-0.0178
11,CGGTGGAC,-0.274
12,GATCGATC,0.00803
13,CACTCGAG,-0.2
14,GATGTGAC,0.119
15,CCTCCTCC,-0.216
16,CCTGGAGA,-0.00886
17,GACATGGA,0.0301
18,CAACTACA,0.084
19,CCCTGGGA,-0.299
20,ATGTACCA,0.159
21,GCCAGCCA,-0.129
22,TAATGTAA,0.224
23,AGCAGCCA,-0.0298
24,AGAAACCC,-0.16
25,CCCTGAAG,-0.257

row,Sequence,PBM E-score
1,GACTTGAA,-0.169
2,AGAAAGCC,0.108
3,CGTTCTAC,-0.0542
4,ACCCGCGG,-0.0735
5,CTCTCCTC,-0.309
6,GCTTACAA,0.1
7,AGCCTCGA,-0.204
8,AAAGGGAT,-0.115
9,AGTCACCG,-0.0759
10,CAAGAAAA,0.177
11,CAATGGAG,-0.202
12,TACCCGCA,-0.0911
13,CTCGGGCA,-0.129
14,CTTAGTGA,0.0175
15,AGACCATA,0.0157
16,CGAGCCGA,-0.218
17,ATGACTCC,-0.00531
18,GGTACCCA,-0.0882
19,AAGGGCCG,-0.147
20,AACATGCC,-0.18
21,ATTACCAA,0.175
22,CCGCTACA,-0.291
23,GCAAGTCC,-0.271
24,AAACAGAC,0.156
25,GGTGAATA,-0.0192

row,Sequence,PBM E-score
1,ACGGACTA,0.0518
2,CCGTCGCC,-0.234
3,ATCTGATC,0.0583
4,CGCTTAAG,0.0271
5,TAACCGAA,-0.219
6,AACGTTCA,0.0648
7,ATCAAAAT,0.136
8,GGTAGGAA,-0.141
9,CATGCGTA,0.38
10,AGGGCATC,-0.137
11,AATACTAA,0.206
12,CCAAGAAA,0.094
13,TGCACGCA,0.193
14,CATCCAGG,-0.301
15,GGAACCAC,-0.0513
16,AGCGTATA,0.15
17,AAGCCGGC,-0.221
18,ATATACTC,-0.043
19,CACTATAA,0.00593
20,ACGCAGCT,0.204
21,AGCAATTG,0.155
22,CCAAGGTC,-0.112
